# Source: publication PMC12040169 (PLOS Biology, 2025)
# This is one part of the list.
# System: T1, C. trachomatis L2/434/Bu expressing GFP (CTL2-GFP)
# T1 construct: L2/434/Bu GFP intracellular growth in HeLa cells
# Set-up: species or system HeLa; C. trachomatis total inclusion area by high-content imaging, normalised to DMSO
# Details: total inclusion area; 28.5 h, 10 µM; inhibitor
# Summary of the method: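 High-content imaging followed the bulk GFP/resorufin measurement: fixed, Hoechst-stained cells were scored for GFP inclusions and host nuclei per well. Total inclusion area and count served as growth proxies, nuclei number as the viability proxy. MIC calculation matched the bulk assay.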
row,Compound,% of control remaining
1,Cc1cc(NS(=O)(=O)c2cccc(Cl)c2C)n[nH]1 [CBK024382],83.0483
2,Cc1cc(C)n(S(=O)(=O)c2cc(C(=O)O)c(Cl)cc2Cl)n1 [CBK113170],84.4613
3,O=C(CSc1nnc(-c2cc(Br)ccc2O)[nH]1)NCCc1ccccc1 [CBK269007],77.2107
4,NS(=O)(=O)c1ccc(NC(=O)c2ccc(COc3ccccc3)o2)cc1 [CBK267915],91.6501
5,COc1c(O)ccc(/C=N\NC(=O)C2COc3cc4ccccc4cc3O2)c1[N+](=O)[O-] (stereo not shown) [CBK262836],82.029
6,O=C(O)c1ccc(-c2c(Cl)cc([N+](=O)[O-])cc2Cl)o1 [CBK026623],95.661
7,O=C(c1ccccc1)N1CCN(C(=O)c2ccco2)CC1 [CBK068314],86.7551
8,COc1ccccc1CN(Cc1cccs1)C(=O)Cn1cnnn1 [CBK305866],46.826
9,COc1ccc([C@]23CN(C)C[C@H]2CCN(C(=O)Nc2cccc(Br)c2)C3)cc1OC [CBK075106T],69.9348
10,CC(NC(=O)CC1CCN(Cc2cccc(C(F)(F)F)c2)CC1)c1nc2ccccc2[nH]1 (stereo not shown) [CBK285952],88.9732
11,C=CCN1CCC(C(=O)NC(=O)NCC2COc3ccccc3O2)CC1 (stereo not shown) [CBK051099],90.6325
12,CC1CCCN(C(=O)C2C3CCC4(CC(=O)c5ccccc5O4)C32)C1 (stereo not shown) [CBK284932],68.7004
13,CC(C)[C@H](CO)Nc1nc(-c2ccco2)cn2ccnc12 [CBK066316],74.5854
14,C=C(C)Cn1c(SCCC(=O)OC)nc2sc3c(c2c1=O)CC(C)(C)OC3 [CBK026634],25.3018
15,COc1ccc(C(=O)Nc2ccccc2N2CCNCC2)cc1 [CBK029447T],79.763
16,c1ccc(Cn2cc(-c3cncn3CCCN3CCCCC3)cn2)cc1 [CBK281491],63.3733
17,Cn1c(SCC(=O)NC(c2ccccc2)c2ccccc2)nnc1-c1ccncc1 [CBK266622],120.418
18,COc1cccc(OC)c1OCCN1CCNCC1 [CBK265089G],115.815
19,O=C(Nc1ccc(-n2cc(Cl)cn2)cc1)c1ccncc1 [CBK270249],113.618
20,CCNC(=O)C(C)NC(=O)c1cnn(-c2ccc(Br)cc2)c1C (stereo not shown) [CBK305021],101.158

row,Compound,% of control remaining
1,OCCn1ncc2c(NCc3ccc(-n4cccn4)nc3)ncnc21 [CBK306326],20.2827
2,Cc1cccc(CN2CCC(NC(=O)NCc3ccn(C)c3)CC2)c1 [CBK305259],80.6062
3,COc1ccc(OCC(=O)N/N=C/c2ccc([N+](=O)[O-])s2)c(I)c1 [CBK261374],77.1207
4,Cc1ccc(OCC(O)CN2CCC(C(N)=O)CC2)cc1C (stereo not shown) [CBK057100],60.2969
5,O=C1NCC(C2CCN(Cc3ccccc3)CC2)Oc2ccccc21 (stereo not shown) [CBK282314],106.297
6,O=C(NC(=S)Nc1ccccc1)c1cncc(Br)c1 [CBK092040],74.8017
7,CC(C)CSc1nnc(-c2ccccc2F)n1CC(C)C [CBK200091],100.536
8,COCCCN(Cc1ccccn1)Cc1cccc(F)c1F [CBK282947],104.351
9,CC(C)Nc1nccnc1Sc1cccc(C(=O)O)c1 [CBK093581],84.184
10,COc1ccc(NC(=O)c2cnn3c2NC(C(=O)O)=CC3c2ccccc2)cc1 (stereo not shown) [CBK287240],91.0311
11,Cn1cnnc1SC1c2cccc3cccc(c23)C1NS(=O)(=O)c1ccc(Cl)cc1 (stereo not shown) [CBK264707],101.398
12,Cc1nc2ncccn2c1-c1csc(Nc2ccc(S(N)(=O)=O)cc2)n1 [CBK263294B],38.9101
13,COc1ccc2cc(/C=N/NC(=O)CN3CCCCC3)c(Cl)nc2c1 [CBK018181],95.8231
14,Cc1ccccc1C(c1cnccn1)N(C)C(=O)C1CCN(C(=O)c2ccccc2)CC1 (stereo not shown) [CBK060208],101.569
15,CCCCOc1ccc(-c2nc(SCC(=O)O)c3c4c(sc3n2)COC(C)(C)C4)cc1 [CBK267716],116.874
16,O=C(COc1cccc(Cl)c1)N/N=C\c1ccc(C(=O)O)cc1 [CBK262293],91.8936
17,CNC(=O)C(NC(=S)NC(=O)c1ccc(F)cc1)C(C)(C)C (stereo not shown) [CBK021945],85.1395
18,CCNC(=O)C1CCN(C(=O)c2coc(COc3cccc(F)c3)n2)C1 (stereo not shown) [CBK307466],55.1118
19,CCOC(=O)c1[nH]c2ccccc2c1NS(=O)(=O)c1cccc(Cl)c1C [CBK047423],78.1879
20,COc1cccc2cc(C(=O)C3=C(O)C(=O)N(CCCN4CCOCC4)C3c3ccc(C)cc3)oc12 (stereo not shown) [CBK266420],92.6371
